Results reported in PubChem BioAssay AID485344 (National Center for Advancing Translational Sciences (NCATS), 2010).
About 6,900 (2%) of roughly 340,000 compounds were called active. Cut-off read from the data, not from the text of the source: active = inhibition above about 30%; inactive = below that, where a call was filed. This is a selection; strong and weak results do not stand in their true shares. The source gives no active or inactive call for entries shown without one.

Biological target: D(2) dopamine receptor (Homo sapiens) (UniProt P14416)
Chain of UniProt P14416 (P14416 whole entry, looked up): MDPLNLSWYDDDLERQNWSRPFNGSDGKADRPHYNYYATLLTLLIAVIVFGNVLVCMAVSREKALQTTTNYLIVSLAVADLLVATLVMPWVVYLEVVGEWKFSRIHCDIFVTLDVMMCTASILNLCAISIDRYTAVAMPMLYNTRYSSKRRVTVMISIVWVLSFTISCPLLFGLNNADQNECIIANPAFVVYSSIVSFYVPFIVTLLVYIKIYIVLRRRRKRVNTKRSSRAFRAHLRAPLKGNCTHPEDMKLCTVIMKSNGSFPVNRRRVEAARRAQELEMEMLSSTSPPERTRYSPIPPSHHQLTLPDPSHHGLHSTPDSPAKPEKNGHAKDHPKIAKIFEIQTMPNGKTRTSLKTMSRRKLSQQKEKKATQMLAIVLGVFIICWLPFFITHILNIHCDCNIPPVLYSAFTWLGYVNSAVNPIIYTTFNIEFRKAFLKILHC
Assay: HTS Assay for Allosteric Antagonists of the Human D2 Dopamine Receptor: Primary Screen for Antagonists; note: 0% is about no effect
Settings: HEK293 TREx D2 cells, calcium flux, dopamine EC80; at 10 µM; stronger effect = higher value
Summary of the method: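 Calcium flux kinetic readout in an inducible HEK293 TREx D2 line plated overnight at 30 C. After 180 s compound exposure, an EC80 dopamine challenge follows with another 180 s kinetic read to detect antagonism.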

Point of comparison: `Cc1cccc(NC(=O)Cn2c(=O)n(CC3CCC(C(=O)NCCc4ccccc4)CC3)c(=O)c3ccccc32)c1` (stereo unspecified), inhibition -16.5%. Against it:
- CCCCC(CC)CNC(=O)Cc1ccc(-n2c(=O)[nH]c3ccccc3c2=O)cc1 (stereo unspecified) — higher, -0.444%
- CCCCC12CN3CC(C)(CN(C1)C3c1c[nH]c3ccccc13)C2=O (stereo unspecified) — higher, 15.7%
- Cc1cccc(CSc2nc3c([nH]c4ccccc43)c(=O)n2C)c1 — higher, 1.92%
- COc1ccc(N2CCN(S(=O)(=O)c3ccc(-c4coc(C)n4)cc3)CC2)cc1 — higher, -2.49%
- CC(=O)N1c2ccc(S(=O)(=O)Nc3ccc(C)c(Cl)c3)cc2CC1C (stereo unspecified) — higher, 11.2%
- CCOc1ccc(CC(=O)Nc2c(C(=O)c3ccccc3)oc3ccc(Cl)cc23)cc1OCC — higher, 14.2%
- Cc1cc2c(cc1S(=O)(=O)Nc1cccc(Cl)c1C)n(C)c(=O)c(=O)n2C — higher, -4.06%
- CCOC(=O)c1cc(-c2ccccc2)n(CCC(=O)Nc2ccccc2CC)c1C — lower, -24.8%
- Cc1cc(C)cc(N2C(=O)CSC23C(=O)N(Cc2c(F)cccc2Cl)c2ccccc23)c1 (stereo unspecified) — higher, 5.53%
- Cc1cccc2nc(-c3ccccn3)c(Nc3ccc(F)cc3)n12 — higher, 16.6%
- COc1ccc(C2CC(=O)N(Cc3ccc(C)cc3)c3c2c(C)nn3-c2nc(C)cc(C)n2)c(OC)c1 (stereo unspecified) — higher, 25.5%
- O=C(CSc1nc(=O)n(CCN2CCOCC2)c2c1CCC2)Nc1ccc(Cl)c(Cl)c1 — lower, -17.5%
- O=C(Nc1ccc(F)c(Cl)c1)Nc1c[nH]c(=O)[nH]c1=O — higher, 19.4%
- Cc1ccc2nc(SCc3nc(-c4ccc(Cl)cc4)no3)[nH]c2c1 — higher, 17.8%
- CC(=O)Nc1ccccc1-c1nc2ccccc2n(CC(=O)Nc2cccc(C)c2C)c1=O — higher, 6.3%
- CC(CNC(=O)c1cnn(-c2ccc(F)cc2)c1-n1cccc1)c1ccccc1 (stereo unspecified) — higher, 3.86%
- Cc1c(C(=O)N2CCCCCC2)c(S(=O)(=O)NCc2ccccc2)c(C)n1C — higher, -0.843%
- CSc1ccccc1-c1nnc(NC(=O)c2ccc3c(c2)OCCO3)o1 — lower, -16.7%
- CC(C)(C)C(=O)CSc1nc2ccsc2c(=O)n1Cc1ccccc1Cl — higher, -10.4%
- CSc1ccc(CCNC(=O)c2cc(C)nc3c2c(C)nn3-c2cccc(F)c2)cc1 — higher, -1.23%
- COc1ccc(NC(=O)c2cc3cc(C)ccc3[nH]2)cc1 — higher, -16.1%
- O=C(OCc1cc(=O)n2nc(-c3cccs3)sc2n1)c1ccccc1Cl — higher, -3.61%
- COc1cccc(CSc2nc3n(n2)C(c2ccc(C(=O)O)cc2)C(C(=O)Nc2ccccc2)=C(C)N3)c1 (stereo unspecified) — higher, 13.5%
- CCOc1ccccc1NC(=O)CSc1nc2c(oc3ccccc32)c(=O)n1-c1ccc(F)cc1 — higher, -8.27%
- CCc1ccc(NC(=O)CSc2nc(C)c(C(=O)Nc3ccccc3)c(-c3ccc(OC)c(OC)c3)c2C#N)cc1 — higher, -6.99%
- Cc1cc(Br)ccc1NC(=O)CSc1c2c(nc3ccccc13)CCC2 — higher, 1.03%
- CCOc1ccc(CNC(=O)CCc2c(C)nn(-c3ccc(N4CCCCC4)nn3)c2C)cc1 — higher, -9.32%
- CC(=O)N1CCc2c(sc3c2c(=O)n(-c2ccccc2)c(=O)n3CC(=O)Nc2cc(C)cc(C)c2)C1 — higher, -4.44%
- CCOc1ccc(CCNC(=O)c2c(C)oc3ncn(CC(C)C)c(=O)c23)cc1OCC — higher, 1.55%
- O=C(NCc1ccccc1F)C(=O)NCC(c1ccc2c(c1)OCO2)N1CCOCC1 (stereo unspecified) — higher, 4.29%
- Cc1ccc(-n2nc(C(=O)N3CCN(c4ccccc4F)CC3)c(=O)n(C)c2=O)cc1 — higher, -12.9%
- CCCCCc1ccc(-c2ccc(Br)cc2)nc1 — higher, 2.36%
- CCOc1ccc(C(=O)Nc2ccc(OCc3cc(=O)n4cccc(C)c4n3)cc2)cc1 — higher, 4.1%
- COc1ccc(S(=O)(=O)NCc2cccn2Cc2cc(C)ccc2C)cc1OC — higher, -6.63%
- CCc1nnc2c3ccccc3nc(Nc3cc(C)cc(C)c3)n12 — higher, -8.53%
- COc1ccc(-c2cc(-c3nc(-c4cc(OC)c(OC)c(OC)c4)no3)[nH]n2)c(OC)c1 — higher, 20.2%
- CC(=O)NCCNC(=O)CCCc1nnc2n(CC(C)C)c(=O)c3sccc3n12 — higher, 6.58%
- COc1cccc(NC(=O)Cn2c(=O)n(Cc3ccc(F)cc3)c(=O)c3sc4ccccc4c32)c1 — higher, -14.6%
- CCc1ccc(-c2nc3cc(NC(=O)c4ccc(C)c(C)c4)ccc3o2)cc1 — higher, 15.4%
- CCOc1ccc(NC(=O)c2nc(S(=O)(=O)Cc3ccccc3F)ncc2Cl)cc1 — higher, -10.8%
- COc1ccc(S(=O)(=O)n2nc(-c3ccco3)nc2NCc2ccc(C(C)C)cc2)cc1 — higher, -2.32%
- Fc1ccc(Nc2nc(-c3cccc(Cl)c3)c3c(n2)-c2ccccc2OC3)c(F)c1 — higher, 14.1%
- Fc1ccc(-c2cc(-c3ccc(F)cc3)c3c(n2)-c2cc(F)ccc2OC3)cc1 — higher, 22.3%
- CCOc1ccc2nc(N3CCCC(C(=O)Nc4ccccc4CC)C3)sc2c1 (stereo unspecified) — higher, -8.3%
- CCc1ccc(NC(=O)CSc2nc(-c3ccc(C)cc3)nc3c2Cc2c(CO)cnc(C)c2O3)cc1 — lower, -22.2%
- CCOC(=O)c1c(NC(=O)c2cc(-c3cccc(Cl)c3)on2)sc(C)c1C — higher, 3.36%
- CCOC(=O)c1cc(-c2ccc(F)cc2)n(CCC(=O)NC2CCC(C)CC2)c1C (stereo unspecified) — higher, -0.296%
- COc1ccc(CNC(=O)CCc2c(C)nc3cc(-c4ccc(OC)cc4OC)nn3c2C)cc1 — higher, 3.86%
- CNc1ccc(-c2nc(-c3ccncc3)no2)cc1[N+](=O)[O-] — higher, 4.69%
- Cc1ccc(CNc2cc(C)nc3nc(-c4ccc(C)cc4)nn23)cc1 — higher, -5.56%
- O=C(NC1CCCCC1)c1ccc2c(c1)N(Cc1cccc(Cl)c1)C(=O)c1ccccc1S2(=O)=O — higher, 4.06%
- COC(=O)c1ccccc1NC(=O)CSc1nc2ccccc2nc1Cc1ccc(F)cc1 — higher, 20.4%
- COc1ccc(N2CCN(C(=O)C(CC(C)C)NS(=O)(=O)c3ccc4nc(C)sc4c3)CC2)cc1 (stereo unspecified) — higher, 2.14%
- CC(C)CCNc1nc(Nc2ccccc2)c2cnn(C)c2n1 — higher, 4.5%
- O=C(Cc1ccc(Cl)cc1)NCCc1csc2nc(-c3ccccc3F)nn12 — higher, 1.98%
- CCC(C)(C)NC(=O)C(NS(=O)(=O)c1cccs1)c1ccccc1 (stereo unspecified) — higher, 11.1%
- Cc1cc(F)ccc1Nc1nc2ccc(Cl)cc2n2cnnc12 — higher, 5.8%
- CCOC(=O)c1ccc(-n2c(CCC(=O)O)ccc2-c2ccccc2)cc1O — higher, -13.8%
- Cc1ccc(C)c(NC(=O)c2nc(S(=O)(=O)Cc3ccc(F)cc3)ncc2Cl)c1 — higher, 14.3%
- CSCCC(NS(=O)(=O)c1ccc2c(c1)oc(=O)n2C)C(=O)NCc1ccc(Cl)cc1 (stereo unspecified) — higher, -2.68%
- Cc1ccc(C(=O)Nc2cc(-c3cn4cccnc4n3)ccc2C)cc1C — higher, 9.48%
- O=C(Nc1cc(-c2cccc(Cl)c2)nn1-c1ccccc1)c1ccccc1F — lower, -23%
- CCc1ccccc1S(=O)(=O)Cc1ccc(C(=O)NCCc2ccc(Cl)cc2)o1 — higher, 15.2%
- CCS(=O)(=O)c1ncc(N(Cc2ccccc2)Cc2ccco2)c(C(=O)Nc2ccccc2C)n1 — higher, -5.75%
- O=C(NCc1cccc(Cl)c1)c1cnc(N2CCOCC2)c2ccccc12 — higher, 3.57%
- CCc1ccc(CNC(=O)Cn2nc(C)c3nn(-c4ccc(Cl)cc4)c(C)c3c2=O)cc1 — lower, -16.8%
- COCCNC(=O)c1ccc2c(c1)ncn2-c1cc(C)ccc1OC — higher, -2.29%
- CCOc1ccc(NS(=O)(=O)c2c(C)nc3sc(CC)nn3c2=O)cc1 — higher, 3.73%
- Cn1cccc1-c1cc2n(n1)CCC(=O)N2CCCC(=O)NCc1cccc(Cl)c1 — higher, 21.1%
- CCCc1nnc(SCc2cc(=O)c3c(C)cc(C)cc3[nH]2)n1C — higher, -1.26%
- CCc1nnc(NC(=O)CSc2nccn2Cc2ccc(Cl)cc2)s1 — higher, 2.94%
- O=C(Nc1ccc(F)cc1F)C1CCN(C(=O)c2cnn(-c3ccccc3)c2-n2cccc2)CC1 — higher, 0.472%
- O=C(NCC(c1ccc2c(c1)OCO2)N1CCN(c2ccccc2)CC1)c1ccc(F)c(F)c1 (stereo unspecified) — higher, 19.8%
- Cc1ccc(OCCCn2c(-c3ccc(Cl)cc3)nc3ccccc3c2=O)cc1C — higher, -10.1%
- C=CCC(CC=C)(CNC(=O)C(=O)Nc1ccc(Br)cc1)c1ccc(OC)c(OC)c1 — higher, -4.97%

In the case of `CCN1CCCC1CNC(=O)c1cc([N+](=O)[O-])c(N(C)C)cc1OC` (stereo unspecified), the inhibition was active: 74.6%.
For `CCc1ccc(CN(C)CC(=O)Nc2sccc2C#N)cc1`, the inhibition was active: 63.9%.
`Cc1cc(C)c(N=Cc2c(O)n(-c3nccs3)c(=O)c3ccccc23)c(C)c1` was tested, and the inhibition was active: 41%.
`COc1ccc(C(C(=O)NC2CCCC2)N(C(=O)c2ccoc2C)c2ccc(C)cc2)cc1` (stereo unspecified) was tested, and the inhibition was active: 50.1%.
With `C#Cc1ccc(CN2CCN(CCCc3ccccc3)C(CCO)C2)cc1` (stereo unspecified) the inhibition was active: 74.7%.
For `O=C(c1cccs1)N1CCC(N2CCN(c3ccccc3)CC2)CC1`, the inhibition was active: 54.2%.
`CCOC(=O)C(Cc1cc(C(C)=O)ccc1OC(C)C)C(=O)OCC` was tested, and the inhibition was active: 54.2%.
In the case of `CC(COc1ccccc1)N(CCCl)Cc1ccccc1` (stereo unspecified), the inhibition was active: 60.9%.
In the case of `COc1ccc(CN=Cc2[nH]c3ccc(Br)c(Cl)c3c2O)cc1`, the inhibition was active: 42.5%.
For `O=c1[nH]c(C2CCN(S(=O)(=O)c3ccccc3C(F)(F)F)CC2)nc2c1nnn2Cc1cccc(F)c1`, the inhibition was active: 42.7%.
`CC(O)C(O)C(O)C(O)C1NCCS1` (stereo unspecified) was tested, and the inhibition was active: 78.9%.
With `COc1ccc(S(=O)(=O)N2CCN(C(=O)[C@@H]3CCC(=O)N3C3OC(=O)c4ccccc43)CC2)cc1` (stereo partly specified) the inhibition was active: 51.5%.
`O=Cc1cc(Cl)ccc1OCCN1CCC(Cc2ccccc2)CC1` was tested, and the inhibition was active: 50.9%.
In the case of `CCN1CCN(C2=CC3=CC(=C(C#N)C#N)CCC3CC2)CC1` (stereo unspecified), the inhibition was active: 79.4%.
`O=c1[nH]c(CN2CCN(C/C=C/c3ccccc3)CC2)nc2ccccc12` was tested, and the inhibition was active: 63.4%.
For `Cc1ccc(-c2noc(CCC(=O)NCc3ccco3)n2)cc1`, the inhibition was active: 60.3%.
`Cc1ccc(S(=O)(=O)N(C)C)cc1NC(=S)NCCc1ccccn1` was tested, and the inhibition was active: 34.1%.
For `CNC(=O)NC(=O)C(C)N1CCN(C/C=C/c2ccccc2)CC1` (stereo unspecified), the inhibition was active: 33.5%.
`CCCS(=O)(=O)N1CCC(C(=O)NCCN2CCC(Cc3ccccc3)CC2)CC1` was tested, and the inhibition was active: 33.9%.
With `Cc1ccc(-n2nnnc2SCc2ccc(C(=O)O)cc2)cc1C` the inhibition was active: 30.3%.
